The record followed here is the supplement of paper PMC10126150.

Values marked as one replicate rest on one cluster of the flow cell; about a third of the high ones do not repeat.

This series has as its system ATP. In words: switch fluorescence ratio, 500 uM ATP over buffer (Cy3 cluster intensity, sum of 5 cycles each) (fold (ratio)); higher = stronger signal-on switching upon ATP binding; sequences stand for … in TCGTCGGCAGCGTCAGATGTGTATAAGAGACAGTTTTTTTTTTTTTTTTTTTTTTTTT…TC. To be noted: aptamer strand: ATP DNA aptamer (quencher-CACCTGGGGGAGTATTGCGGAGGAAGG + anchor), 100 nM annealed; ATP concentration: 500 uM; one replicate. In a few lines:
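Cy3-labelled switching-strand clusters on a modified Illumina MiSeq flow-cell were annealed to 100 nM quencher-labelled ATP aptamer, imaged in selection buffer, then imaged after 15 min with 500 uM ATP at 22 °C. Five buffer/ATP cycles ran, with NaOH stripping and re-annealing between them. The fluorescence ratio is summed target-cycle over summed buffer-cycle Cy3 intensity per cluster, averaged per switch-domain sequence. Clusters outside 100-1000 RFU were excluded.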
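Also: ATP exposure 15 min at 22 °C before imaging.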

Regarding GTTAAAAGGA, the switch fluorescence ratio worked out at 0.975.

In the case of CGGGGAGACT, the switch fluorescence ratio was determined as 1.02.

Turning to ACAATTTTAA, the switch fluorescence ratio turned out to be 0.981.

With TCTCACAAGT, the switch fluorescence ratio amounted to 0.986.

On to ATCGGCAAAT, for which the switch fluorescence ratio came to 1.18.

Regarding CTGGCATCTG, the switch fluorescence ratio came out at 0.988.

For CGCATTTAGC, the switch fluorescence ratio was 1.3.

With CGCTTATGGG, the switch fluorescence ratio was determined as 1.

As for GAGTGATATG, the switch fluorescence ratio was determined as 1.01.

For the sequence GCGTTGAAAC, the switch fluorescence ratio amounted to 0.968.

On to AATGGTATTG, for which the switch fluorescence ratio amounted to 0.978.

For the sequence ATGAAATACA, the switch fluorescence ratio turned out to be 1.26.

On to TCCGCCTTCT, for which the switch fluorescence ratio worked out at 1.03.

Take GTAACTGAGT: the switch fluorescence ratio was determined as 0.983.

With GGAGATAATT, the switch fluorescence ratio is 1.02.

Consider GATTACAAGA, for which the switch fluorescence ratio is 1.03.

TCTAGAGGTT: the switch fluorescence ratio is 1.01.

As for TCCGGGGGCG, the switch fluorescence ratio came out at 0.974.

TCCGGATCGA: the switch fluorescence ratio was 1.04.

Turning to CTGGTTGACT, the switch fluorescence ratio is 1.03.

Take GCCGCACAGC: the switch fluorescence ratio was 1.91.

On to TCCGAGTACG, for which the switch fluorescence ratio amounted to 1.3.

In the case of CTGGTATATG, the switch fluorescence ratio came out at 1.01.

Consider ATGGATGGC, for which the switch fluorescence ratio amounted to 0.967.

Consider TTGTCGAGTG, for which the switch fluorescence ratio came out at 1.02.

Take GATAATCGGG: the switch fluorescence ratio turned out to be 0.978.

Take CCCATCCCGT: the switch fluorescence ratio is 0.991.

In the case of GCCATAGATA, the switch fluorescence ratio worked out at 1.03.

With ACTAAGGACA, the switch fluorescence ratio worked out at 1.06.

Take AGCTTTAACT: the switch fluorescence ratio is 1.04.

As for GGATGGGCTT, the switch fluorescence ratio came out at 1.01.

As for TAACTTGCGC, the switch fluorescence ratio is 1.05.

Consider TCTAGTTGGA, for which the switch fluorescence ratio amounted to 1.

GGTGCTTTA: the switch fluorescence ratio came out at 1.01.

In the case of CGGGAGATCT, the switch fluorescence ratio came out at 0.993.

Consider CTTGCGAGGC, for which the switch fluorescence ratio turned out to be 1.49.

Take ACTGTAATGG: the switch fluorescence ratio is 1.2.

TATAATCTCA: the switch fluorescence ratio was determined as 0.996.

As to TATGATTCTT, the switch fluorescence ratio turned out to be 1.02.

As for CTCGATAGAC, the switch fluorescence ratio amounted to 1.8.

As for TGGATCATCA, the switch fluorescence ratio came out at 1.

On to CACGATCACG, for which the switch fluorescence ratio stood at 1.08.

As for TGAGCAGGG, the switch fluorescence ratio turned out to be 0.971.

On to CGGTGAAACC, for which the switch fluorescence ratio turned out to be 1.02.

Consider TTTCGTTGTT, for which the switch fluorescence ratio was determined as 0.991.

Regarding GCACAATTTG, the switch fluorescence ratio amounted to 0.977.

As to CCAAGCGAGA, the switch fluorescence ratio was 1.36.

TCTATAACGA: the switch fluorescence ratio was 1.02.

For the sequence GGCCTCTCGC, the switch fluorescence ratio amounted to 1.09.

Consider CAGTTCCTAC, for which the switch fluorescence ratio was found to be 0.983.

With TGGGCAGCGG, the switch fluorescence ratio is 0.969.

In the case of GTATCGTTTT, the switch fluorescence ratio is 1.03.

AGGTGCTGCT: the switch fluorescence ratio was 0.926.

Consider AGGCACCGT, for which the switch fluorescence ratio was 1.01.

Consider TGTTTCCAAG, for which the switch fluorescence ratio came out at 1.

Turning to CGCGGGGTTC, the switch fluorescence ratio is 1.04.

Consider CGGGTGAAGA, for which the switch fluorescence ratio amounted to 1.01.

On to GAACACATTT, for which the switch fluorescence ratio is 1.04.

GGAAAATTGG: the switch fluorescence ratio worked out at 0.924.

Consider AAAGGGACCC, for which the switch fluorescence ratio was determined as 0.975.

TAGCACGTAC: the switch fluorescence ratio was 1.98.

Consider CGATCGTTAA, for which the switch fluorescence ratio was 1.04.

As for AGAACATTT, the switch fluorescence ratio came out at 1.02.

In the case of AACTGCTGAT, the switch fluorescence ratio was 0.954.

Take CAAACTACCG: the switch fluorescence ratio turned out to be 1.01.

Regarding ACTAGGCTAG, the switch fluorescence ratio worked out at 0.953.

As for CACCGGGTGC, the switch fluorescence ratio was 2.07.
